The whole screen tested about 48,000 compounds, of which about 1,200 (2.5%) were called active. Not shown: some 2% with an inconclusive outcome.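 The calls were made as follows: active = activation of at least 60% and not above a set upper limit (about 1 call in 100 departs from these limits); inconclusive = activation of 40% to 60%, or above that upper limit; inactive = activation under 40%.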 Some of the results follow.
biological target: Probable G-protein coupled receptor 32 (Homo sapiens) (UniProt O75388); assay: qHTS for Agonists of Human Resolvin D1 Receptor DRV1; details: CHO-K1 GPR32 beta-arrestin PathHunter luminescence, 90 min; at 76.9 µM; stronger effect = higher value; zero percent set by DMSO-only wells; also: 0% is about no effect
Chain of UniProt O75388 (O75388 whole entry, looked up): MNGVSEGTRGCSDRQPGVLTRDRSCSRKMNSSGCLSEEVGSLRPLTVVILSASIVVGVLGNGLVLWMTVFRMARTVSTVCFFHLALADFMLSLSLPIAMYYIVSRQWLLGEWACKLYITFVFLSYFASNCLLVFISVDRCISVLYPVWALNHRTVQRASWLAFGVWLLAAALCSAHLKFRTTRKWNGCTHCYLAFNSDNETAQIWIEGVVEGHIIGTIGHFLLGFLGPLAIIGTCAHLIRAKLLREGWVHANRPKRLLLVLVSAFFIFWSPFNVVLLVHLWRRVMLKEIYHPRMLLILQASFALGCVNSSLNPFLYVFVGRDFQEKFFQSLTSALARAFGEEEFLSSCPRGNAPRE
In short: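 Engineered CHO-K1 line co-expressing GPR32-ProLink and EA-beta-arrestin. Compound treatment lasted 90 min at 37 °C. Luminescence was recorded after 1 h with substrate at ambient temperature, relative to DMSO basal wells.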

Structure (SMILES)	activation
CN(C)c1ccc(CNC(=O)c2cc3ccccn3n2)cc1	inactive: 5.13%
Cc1ccc(C)c(NC(=O)CCCN2C(=O)COc3ccc(C)cc32)c1	inactive: -30.3%
Cc1cc(C)cc(NC(=O)CSc2nnc(COc3ccccc3Cl)o2)c1	inactive: -5.61%
CCN(CC)S(=O)(=O)c1ccc2c(c1)c(=O)c(C(=O)N(C)Cc1ccccc1)cn2C	inactive: -9.08%
CC(C)(C)OC(=O)N1CCC(c2c(C(=O)Nc3cccc(C(F)(F)F)c3)cnn2-c2ccc(F)cc2F)CC1	inactive: -29.9%
Cn1cnc2c(=O)oc3ccc(S(=O)(=O)N4CCN(c5ccccc5)CC4)cc3c21	inactive: -5.35%
Cc1nn(-c2ccccc2)c(-n2cccc2)c1C(=O)NCc1ccccc1Cl	inactive: 2.24%
CC1CCN(S(=O)(=O)c2ccc3ncn(CC(=O)Nc4ccccc4C(F)(F)F)c(=O)c3c2)CC1	inactive: 25.4%
CC(=O)Nc1cc(C(=O)NCc2ccc(F)cc2)ccc1Sc1ccc(C)cc1	inactive: -14.8%
CCOC(=O)CC(NC(=O)Cn1nnc(-c2ccc(C(F)(F)F)cc2)n1)c1ccccc1Cl (stereo not drawn)	inactive: 8.07%
COc1ccc(C)cc1NC(=O)c1cc2c(s1)-c1ccccc1SC2	inactive: -17.6%
CCOC(=O)C1CCN(C(=O)CSc2n[nH]c(-c3ccccc3Cl)n2)CC1	inactive: -11.2%
CN(C)c1ccc(C(CNC(=O)Cc2ccc(Cl)cc2)N2CCOCC2)cc1 (stereo not drawn)	inactive: -9.94%
Cc1cc(OCC(=O)Nc2cnn(CCCC(=O)O)c2)ccc1Cl	active: 82.2%
O=C1CN(C(=O)c2ccc(Cl)cc2Cl)C(c2ccc(F)cc2)c2cc(F)ccc2N1 (stereo not drawn)	inactive: -13%
CCn1cc(C(=O)NCCCN2CCC(C)CC2)c(=O)c2cc(S(=O)(=O)N(C)C3CCCCC3)ccc21	inactive: -2.66%
CCN(CC)CCNC(=O)c1ccc2c(c1)NC(=O)C(CS(=O)(=O)Cc1ccc(F)cc1Cl)N2 (stereo not drawn)	inactive: 9.33%
COc1ccc(C(=O)c2oc3ccccc3c2NC(=O)COc2cccc(C)c2)cc1	inactive: 2.04%
Cc1nn(C)c2c1c(-c1ccccc1)cc(=O)n2C(C)C(=O)NCCc1ccc(Cl)cc1 (stereo not drawn)	inactive: -18.5%
CN1CCC[C@@H]1Cc1c[nH]c2ccc(CCS(=O)(=O)c3ccccc3)cc12	inactive: -0.895%
COc1ccc(S(=O)(=O)NCC(c2ccco2)N2CCN(c3ccccc3F)CC2)cc1OC (stereo not drawn)	inactive: -22%
CC(C)c1nc2ccc(C(=O)NCc3ccc(F)cc3)cc2o1	inactive: -11.1%
COc1ccc(-c2ccc3c(N)c(C(=O)Nc4ccc(C)cc4C)sc3n2)cc1OC	inactive: 20.8%
